Experimental data: PubChem BioAssay AID2202238 (Ras Initiative Chemistry Research Team, Frederick National …, 2025)
The other results are listed elsewhere or left out. Shown are side measurements of this screen, not its main read-out; they come without a call.

Molecular target: GTPase KRas (Homo sapiens) (UniProt P01116)
Test: Fragment capture on engineered cysteines, share of protein labelled (AID 2202238)
Design: protein at 5 µM with 500 µM competing thiol for 1.5 h
Conditions: KRAS G12D cysteine mutants, disulfide tethering, MALDI-TOF labeling, stronger effect = higher value, fragment at 500 µM
[1] = measured here: G60C mutant labeling
[2] = measured here: G75C mutant labeling
[3] = measured here: H94C mutant labeling
[4] = measured here: I36C mutant labeling
[5] = measured here: L120C mutant labeling
[6] = measured here: M67C mutant labeling
[7] = measured here: M72C mutant labeling
[8] = measured here: N26C mutant labeling
[9] = measured here: N86C mutant labeling
[10] = measured here: P121C mutant labeling
[11] = measured here: S122C mutant labeling
[12] = measured here: S136C mutant labeling

UniProt P01116, sequence (P01116 whole entry, looked up, the tested form may be a part): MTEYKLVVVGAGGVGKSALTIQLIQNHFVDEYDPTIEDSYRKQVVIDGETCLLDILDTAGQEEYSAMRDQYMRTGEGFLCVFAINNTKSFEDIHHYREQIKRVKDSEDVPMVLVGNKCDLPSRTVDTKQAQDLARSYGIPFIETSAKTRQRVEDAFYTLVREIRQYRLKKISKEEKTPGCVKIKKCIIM

Structure (SMILES) | percent labeling [1] [%] | percent labeling [2] [%] | percent labeling [3] [%] | percent labeling [4] [%] | percent labeling [5] [%] | percent labeling [6] [%] | percent labeling [7] [%] | percent labeling [8] [%] | percent labeling [9] [%] | percent labeling [10] [%] | percent labeling [11] [%] | percent labeling [12] [%]
O=C(CN1C(=O)COc2cc(Br)ccc21)NCCS | 35.9 | 12.1 | 18.9 | 11.9 | 25.9 | 16.6 | 29.4 | 26 | 12.1 | 11.7 | 9 | 17.7
O=C(CCS)N1CCCC(Cn2cnc3ccccc32)C1 (stereo unspecified) |  | 20.8 | 44.3 | 46.7 | 35 | 49.4 | 29.8 |  | 26.9 | 32 | 30 | 61.7
Cn1nnnc1N1CCC(NC(=O)CCS)CC1 |  | 7.5 | 31.4 | 39.2 | 30.3 | 31.3 | 10.7 |  | 19.3 | 33 | 29.9 | 51.1
COc1ccc(-c2nc(CC(=O)NCCS)cs2)cc1OC | 34.6 | 15.6 | 24.2 | 18.4 | 27.9 | 16.9 | 32 | 30.6 | 11.4 | 14.9 | 9.7 | 19.4
CCCc1c(NC(=O)CCS)cnn1-c1cc(F)c(OC)cc1F |  | 23.1 | 23.8 | 18.5 | 17 | 22.6 | 40.8 |  | 20.9 | 18.1 | 17.7 | 44.5
CNC(=O)[C@@H]1Cc2ccccc2CN1C(=O)CCS |  | 6.8 | 27.4 | 28.2 | 33.3 | 27.4 | 22.1 |  | 22.6 | 31.5 | 25.1 | 44.2
O=C(CCS)NCCn1ncc(Br)n1 |  | 9.3 | 33 | 34.3 | 36.9 | 36.2 | 17.8 |  | 13.9 | 32.6 | 33.7 | 48.1
O=C(NCCS)c1nn(-c2ccc(F)cc2)ccc1=O | 39.8 | 24.3 | 37.9 | 28.4 | 56.2 | 45.4 | 48.4 | 46.6 | 27.6 | 30.7 | 31.9 | 53.4
O=C(CC1CCC2(CCOCC2)CO1)NCCS (stereo unspecified) | 24.4 | 9.6 | 30.3 | 21.2 | 38.7 | 30.6 | 15.3 | 34 | 22.3 | 33.2 | 31.4 | 40.1
O=C(CCS)Nc1ccc2ccc(O)cc2c1 |  | 24.3 | 28.1 | 28.9 | 21.2 | 18.9 | 64.9 |  | 15 | 25.3 | 19.5 | 36.5
O=C(CCS)NC1(c2nn[nH]n2)CCCC1 |  | 13.2 | 20.3 | 26 | 28.9 | 18 | 10.7 |  | 21.8 | 31.1 | 39.1 | 38.5
O=C(NCCS)c1ccc(OCc2ccccc2)cc1 | 12.4 | 6.3 | 3.3 | 9.9 | 9.1 | 11.5 | 14.7 | 26.7 | 5.6 | 7.8 | 4.3 | 10.1
Cn1cc(-c2cc(F)ccc2NC(=O)CCS)cn1 |  | 17.4 | 47 | 47.4 | 34.2 | 41.7 | 30.5 |  | 35.5 | 35.9 | 30.1 | 52.4
Cn1nc(C(F)(F)F)nc1CNC(=O)CCS |  | 8.3 | 23.8 | 24.6 | 31.1 | 27.8 | 10 |  | 18.3 | 28.6 | 35 | 42.1
COc1cccc(CNC(=O)CCS)c1OC(F)F |  | 13 | 35.2 | 34.1 | 30.6 | 30.7 | 34.5 |  | 21.8 | 27.5 | 30.9 | 44.5
O=C(CCS)NCc1nnnn1CC1CC1 |  | 13.8 | 31.9 | 39 | 30.1 | 32.1 | 23.5 |  | 38.1 | 37.7 | 35.4 | 48.9
O=C(NCCS)c1cc(-c2c[nH]c3ccccc23)n[nH]1 | 18 | 15.8 | 12.6 | 9.9 | 17.3 | 28.5 | 75.9 | 18.4 | 7.7 | 12.7 | 6.5 | 18.9
O=C(CCS)N1CCN(c2ccccc2)C(=O)C1 |  | 10.7 | 26.3 | 37.9 | 28.7 | 27.5 | 23.1 |  | 23.9 | 34.7 | 35.3 | 51.2
O=C(CCS)N1CCC(c2nc(C3CC3)n[nH]2)CC1 |  | 10.7 | 35.3 | 38.1 | 38.1 | 41.2 | 19.5 |  | 20.2 | 34.7 | 38.6 | 59.2
CN1CCN(Cc2ccc(CNC(=O)CCS)cc2)CC1 |  | 14.2 | 36.1 | 50.8 | 34.6 | 51 | 27.2 |  | 28 | 31.3 | 30.5 | 46.9
O=C(CCS)Nc1ccc(-c2ncc3n2CCCC3)cc1 |  | 9.1 | 15.7 | 26.9 | 21.6 | 24.4 | 42.1 |  | 9 | 16.6 | 15.4 | 29.6
CCCn1ccnc1-c1cccc(NC(=O)CCS)c1 |  | 20 | 36.5 | 37.6 | 28.2 | 33.6 | 38.7 |  | 28.1 | 30.3 | 27.4 | 64.1
O=C(CN1C(=O)C2CCCCC2C1=O)NCCS (stereo unspecified) | 27.7 | 11.8 | 32.2 | 21 | 44.2 | 27.6 | 25.7 | 35.6 | 32 | 34.7 | 38 | 37.7
O=C(CCCOc1ccc2c(c1)OCO2)NCCS | 37.1 | 19.1 | 26.9 | 18.7 | 34.5 | 22.5 | 28 | 36.4 | 23.8 | 22.7 | 21.5 | 28.8
